The list shows a part of the results. The list includes weakly bound sequences.

This assay concerns the target MaxL homodimer (UniProt P61244). Description: universal protein-binding microarray (PBM). Particulars: PBS-based mixture, 10 nM His-tagged protein dimer, 2% milk, 200 ng/uL BSA, 50 ng/uL salmon testes DNA, 0.02% TX-100; detection with Alexa 488 anti-His …; high values mean tight binding; most listed sequences are background and not binding sites; double strand, one strand shown.
Sequence of UniProt P61244 (P61244 whole entry): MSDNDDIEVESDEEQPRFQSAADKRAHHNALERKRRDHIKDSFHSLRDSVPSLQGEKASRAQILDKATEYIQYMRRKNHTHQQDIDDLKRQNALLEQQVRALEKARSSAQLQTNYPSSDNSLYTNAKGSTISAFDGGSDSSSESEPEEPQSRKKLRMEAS
Turning to GCATTTAC, the binding signal (normalized occupancy) is 0.0757.
The same measure for CGATCATC: 0.0783; for AGATGTGC: 0.0825; for ATTCCTCG: 0.0818.
The same measure for GTCAGGTA: 0.0771; for ATTGAAGA: 0.0753.
The same measure for ACAAAAGT: 0.0714.
Turning to CCCACAGC, the binding signal (normalized occupancy) was found to be 0.0741.
The same measure for AAATGAAC: 0.0771; for AAGTGTCA: 0.076.
The result for TCTGATAA reads 0.0824; that for ATTCAATA, 0.0791.
ATGGACAT: the binding signal (normalized occupancy) worked out at 0.0812.
The same measure for AGAGACCC: 0.0694; for AAACAAGC: 0.0657.
On to CACGCAAC, for which the binding signal (normalized occupancy) was found to be 0.0776.
The same measure for ATTTCCTG: 0.0715; for CCACCAAG: 0.072; for CCCTATAG: 0.0769.
Turning to GACTTACA, the binding signal (normalized occupancy) is 0.0731.
The result for TAATAATA reads 0.0881; that for GACACTCA, 0.0738.
For the sequence CCGTTATC, the binding signal (normalized occupancy) worked out at 0.079.
On to GGAAAGTA, for which the binding signal (normalized occupancy) is 0.0717.
The same measure for CCTCACGA: 0.0765; for ACAGTAGT: 0.0739; for CGAAGCAC: 0.0756.
Regarding CACCAGTA, the binding signal (normalized occupancy) turned out to be 0.0795.
The result for CGGCCTCA reads 0.0713; that for ACCAGTTA, 0.0761.
The result for AAGGTAGT reads 0.0772; that for GAGGTTCA, 0.075; that for TGATATCA, 0.0873.
The result for GCGACCCC reads 0.0803; that for AGGGGATA, 0.0873; that for AGGAGTCA, 0.0758.
ATTTCATC: the binding signal (normalized occupancy) turned out to be 0.0789.
On to TCAAAACA, for which the binding signal (normalized occupancy) amounted to 0.0736.
As for GAGAGAAC, the binding signal (normalized occupancy) was 0.0873.
The same measure for TACCCGAA: 0.0768; for AGCCCAGA: 0.0724.
The result for ATAACCCC reads 0.0892; that for GGACGAGA, 0.0695.
The result for AAGGCGGC reads 0.0727; that for CGTTCCGA, 0.0709; that for AACTGGCA, 0.0713.
Turning to CCCGGAAG, the binding signal (normalized occupancy) was 0.0703.
The result for ACGGACGG reads 0.0701; that for GCCTAAGC, 0.0703.
Regarding CTCAAAAA, the binding signal (normalized occupancy) came to 0.0744.
The same measure for CCAAGATA: 0.0821; for CAATCTTA: 0.0779.
The result for CCAAAGGC reads 0.069; that for AAGAGTAA, 0.0792; that for TCGCATCA, 0.0786.
The result for CTTCCCTA reads 0.071; that for GAGTGGCC, 0.073; that for GGCTGCAC, 0.0711.
As for AGCTCCCT, the binding signal (normalized occupancy) is 0.0725.
In the case of ATTTACTC, the binding signal (normalized occupancy) stood at 0.0738.
The result for CTGGACGC reads 0.0708; that for CTGGATGC, 0.0706; that for CCTCCGGA, 0.0691.
The result for TAAATGCA reads 0.0733.
The same measure for GTGCCCAA: 0.0767.
Turning to ACAATGGG, the binding signal (normalized occupancy) was 0.0783.
The same measure for TACGACGA: 0.0716.
The result for AGCAGCGC reads 0.071; that for GACGAGCA, 0.0723; that for ACTAGGAT, 0.0741.
The same measure for GCAGGGTA: 0.0757; for AGGGGAAA: 0.0729.
On to AACAGTCG, for which the binding signal (normalized occupancy) turned out to be 0.073.
The result for AAAATCCT reads 0.0702; that for CGACGGTC, 0.0719.
The same measure for CAGCAAAG: 0.068; for ACCCTAGA: 0.0786; for ACGGCCGG: 0.0705.
The same measure for AACGCGCA: 0.078; for ACAGACGG: 0.0744; for CACAATCC: 0.0745.
GCTTTTCA: the binding signal (normalized occupancy) came out at 0.0704.
The result for GTCCGAAC reads 0.0707; that for ACAATTGT, 0.0763.
The result for CGTAATAC reads 0.0758; that for CGCCTGGC, 0.0759; that for TCAACCAA, 0.0742.
The same measure for ACCGAGTG: 0.0736; for GGGGTTCA: 0.0782; for CGGCATTA: 0.0721.
On to CCTTTCAG, for which the binding signal (normalized occupancy) was determined as 0.0706.
The result for CAGCCCGC reads 0.0671.
The same measure for ATCTGGAG: 0.0735.
Consider CTATACTC, for which the binding signal (normalized occupancy) stood at 0.0784.
The same measure for AGGATCTC: 0.0765; for ATTCCCCA: 0.0789.
The result for CATCAAAG reads 0.0738; that for ACGCTCTA, 0.0826.
The result for ACGGCGTA reads 0.0728; that for ACCTTGGA, 0.0711.
Regarding TATCTTCA, the binding signal (normalized occupancy) amounted to 0.0764.
The result for GTGGAAAA reads 0.0879; that for AGGATTTC, 0.0737; that for ACTGTTTG, 0.0779.
The same measure for CGCCTCGA: 0.0668.
The result for TCAGCGCA reads 0.0738.
Consider CCGAAATC, for which the binding signal (normalized occupancy) turned out to be 0.073.
Regarding CCGGATGC, the binding signal (normalized occupancy) worked out at 0.0722.
The result for CATTACCA reads 0.0833.

The values are drawn from paper PMC4242493.
